# PubChem BioAssay (Tox21)
# Several values for one entry are separate records, joined by “and”; a condition that tells them apart may be missing. Identical values can stand only once. The shares of active, inactive and inconclusive entries below differ from those in the screen. For some assays here: Where the call is inconclusive, the potency comes from a doubtful curve fit. Where a structure was tested more than once in an assay, its records may differ in their call. Activity calls are given as the source filed them. Unless noted, the call rests on the fitted dose curve; in most records, active means well fitted curve in the direction sought with a large enough effect in the repeat runs; inconclusive means weak or mixed curves; inactive means no such curve, though single readings can be large; an effect the other way counts as inactive or inconclusive.
# Experiments:
# [1] = qHTS assay to identify small molecule agonists of the sonic hedgehog signaling (Shh) pathway - cell viability counter screen (AID 1259366); further: nearly all actives have a fitted effect of over 50% in size
# In short: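 In quantitative high-throughput format, 3T3 Gli1-Luc cells were exposed to compounds for 24hr and multiplexed for viability using CellTiter-Fluor, incubated 1hr at 37C before the fluorescence read.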
# [2] = qHTS assay to identify small molecule antagonists of the sonic hedgehog signaling (Shh) pathway (AID 1259369; calls by dose curve; further: nearly all actives have a fitted effect of over 45% in size; on activity change, negative = inhibition: on the % scale 0 is the no-effect control and ±100 the full control effect)
# In short: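 Luminescence readout: firefly Luc under Gli1 response element in 3T3Gli1-Luc cells (NIH/3T3 clone). Antagonist mode, stimulation by conditioned medium; compound exposure 24hr at 37 C, 5% CO2.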
# [3] = qHTS assay to identify small molecule agonists of the estrogen receptor beta (ER-beta) signaling pathway - cell viability counter screen (AID 1259380); further: nearly all actives have a fitted effect of over 30% in size
# In short: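 Luminescence read-out (CellTiter-Glo, 30 min, room temp) taken in the same wells as the beta-lactamase reporter assay; ER-beta-UAS-bla HEK293T cells exposed to DMSO-dissolved compounds for 16 hr at 37C in 2% charcoal-stripped FBS medium.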
# [4] = qHTS assay to identify small molecule agonists of the estrogen receptor alpha (ER-alpha) signaling pathway in the presence of an antagonist - cell viability counter screen (AID 1259386);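 further: cells exposed to compounds for 22 h at 37 °C before the viability read; nearly all actives have a fitted effect of over 30% in size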
# In short: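 Read-out: CellTiter-Fluor fluorescence after 1hr reagent incubation, measured in the same wells as the luciferase readout. VM7Luc4E2 cells were exposed to 15 compound concentrations with 10.0nM ICI-182,780 for 22hr at 37C.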
# [5] = biological target: Progesterone receptor (Homo sapiens) (UniProt P06401); experiment: qHTS assay to identify small molecule antagonists of the progesterone receptor (PR) signaling pathway (AID 1346795; active means well fitted inhibition curve with a large enough effect in the signal ratio in the repeat runs, not every such curve was filed as active; inconclusive means weak or mixed curves; the % refers to the signal ratio; on activity change, negative = inhibition: on the % scale 0 is the no-effect control and ±100 the full control effect); conditions: PR-UAS-bla HEK293T, beta-lactamase FRET ratio, 16 h; activity change, negative = inhibition: at 92.4 µM (top of the series) unless noted
# Sequence of UniProt P06401 (P06401 whole entry, looked up): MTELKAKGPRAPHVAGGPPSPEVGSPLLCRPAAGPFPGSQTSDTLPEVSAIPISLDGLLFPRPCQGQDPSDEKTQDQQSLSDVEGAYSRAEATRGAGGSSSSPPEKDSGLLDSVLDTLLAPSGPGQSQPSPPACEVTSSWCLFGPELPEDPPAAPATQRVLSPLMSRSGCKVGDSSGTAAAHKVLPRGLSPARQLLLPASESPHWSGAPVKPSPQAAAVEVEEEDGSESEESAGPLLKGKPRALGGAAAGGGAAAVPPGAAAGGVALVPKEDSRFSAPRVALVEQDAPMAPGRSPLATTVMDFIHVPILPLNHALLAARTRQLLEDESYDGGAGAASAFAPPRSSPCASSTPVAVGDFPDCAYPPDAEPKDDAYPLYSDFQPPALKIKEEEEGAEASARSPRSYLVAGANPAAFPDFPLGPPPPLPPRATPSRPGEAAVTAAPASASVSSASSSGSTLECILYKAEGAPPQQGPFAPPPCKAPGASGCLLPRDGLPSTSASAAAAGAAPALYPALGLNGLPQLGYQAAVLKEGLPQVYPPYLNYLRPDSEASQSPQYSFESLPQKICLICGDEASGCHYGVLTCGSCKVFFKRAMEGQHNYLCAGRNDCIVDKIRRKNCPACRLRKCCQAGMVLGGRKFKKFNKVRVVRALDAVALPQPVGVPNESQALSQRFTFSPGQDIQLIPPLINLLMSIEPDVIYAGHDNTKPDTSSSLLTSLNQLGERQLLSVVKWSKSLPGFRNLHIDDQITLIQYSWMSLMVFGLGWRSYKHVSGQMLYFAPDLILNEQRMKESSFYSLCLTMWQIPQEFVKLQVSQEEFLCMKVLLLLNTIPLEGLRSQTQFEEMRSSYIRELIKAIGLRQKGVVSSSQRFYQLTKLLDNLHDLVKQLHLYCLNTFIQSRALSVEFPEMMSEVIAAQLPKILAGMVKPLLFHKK
# In short: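 Stimulus R5020 at 1 nM final; cells HEK293T PR-UAS-bla; medium with 2% charcoal-stripped FBS; compound exposure 16 hr at 37C, 5% CO2; detection by FRET beta-lactamase substrate, 2 hr, room temperature.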
# [6] = qHTS assay to identify small molecule agonists of the progesterone receptor (PR) signaling pathway - cell viability counter screen (AID 1346799; calls by dose curve; further: nearly all actives have a fitted effect of over 45% in size)
# In short: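 Multiplexed viability read: CellTiter-Glo luminescence, 30 min RT, following LiveBLAzer FRET measurement on PR-UAS-bla HEK293T cells exposed to compounds 16 hr.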
# [7] = qHTS assay to identify small molecule antagonists of the progesterone receptor (PR) signaling pathway - cell viability counter screen (AID 1346798); further: nearly all actives have a fitted effect of over 50% in size
# In short: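 In the same plates used for the beta-lactamase readout, cell viability of compound- and R5020-treated PR-UAS-bla HEK293T cells (16 hr, 37C) was assessed by CellTiter-Glo luminescence.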
# [8] = qHTS assay to identify small molecule antagonists of the sonic hedgehog signaling (Shh) pathway - cell viability counter screen (AID 1259367); further: nearly all actives have a fitted effect of over 55% in size
# In short: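 Fluorescence read-out (CellTiter-Fluor, 1 hr at 37C) taken after 23 hr compound treatment of 3T3 Gli1-Luc cells stimulated with conditioned medium. Cells were seeded at 2,000 per well and pre-incubated 4 hr.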
# [9] = biological target: Estrogen receptor beta (Homo sapiens) (UniProt Q92731); experiment: qHTS assay to identify small molecule agonists of the estrogen receptor beta (ER-beta) signaling pathway (AID 1259377; active means well fitted activation curve with a large enough effect in the signal ratio in the repeat runs, not every such curve was filed as active; inconclusive means weak or mixed curves, or effect the other way; the % refers to the signal ratio); conditions: ER-beta-UAS-bla HEK293T, beta-lactamase FRET ratio, 16 h; activation: at 92.4 µM (top of the series) unless noted
# Sequence of UniProt Q92731 (Q92731 whole entry, looked up): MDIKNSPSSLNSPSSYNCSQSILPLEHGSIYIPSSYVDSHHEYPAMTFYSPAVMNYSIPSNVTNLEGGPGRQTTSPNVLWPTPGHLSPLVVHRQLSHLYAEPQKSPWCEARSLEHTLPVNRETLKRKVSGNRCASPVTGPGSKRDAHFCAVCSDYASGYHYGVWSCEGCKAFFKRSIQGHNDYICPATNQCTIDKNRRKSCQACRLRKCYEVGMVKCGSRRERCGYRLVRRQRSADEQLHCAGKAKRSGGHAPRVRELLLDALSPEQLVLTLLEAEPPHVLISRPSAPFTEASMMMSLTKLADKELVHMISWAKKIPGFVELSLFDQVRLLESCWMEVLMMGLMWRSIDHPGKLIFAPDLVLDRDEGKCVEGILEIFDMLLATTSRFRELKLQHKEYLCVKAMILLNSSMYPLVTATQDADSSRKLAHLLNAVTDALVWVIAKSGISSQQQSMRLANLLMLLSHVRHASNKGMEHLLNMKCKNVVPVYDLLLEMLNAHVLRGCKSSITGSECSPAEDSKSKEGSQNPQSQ
# In short: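 Reporter cells (HEK293T, ER-beta-UAS-bla) receive compounds or DMSO after a 6 hr pre-incubation. They then incubate 16 hr at 37C/5% CO2, and fluorescence from LiveBLAzer B/G substrate is measured after 2 hours at room temperature.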
# [10] = biological target: Estrogen receptor beta (Homo sapiens) (UniProt Q92731); experiment: qHTS assay to identify small molecule antagonists of the estrogen receptor beta (ER-beta) signaling pathway (AID 1259378; active means well fitted inhibition curve with a large enough effect in the signal ratio in the repeat runs, not every such curve was filed as active; inconclusive means weak or mixed curves, or effect the other way; inactive means no such curve, though single readings can be large or run the other way; the % refers to the signal ratio; on activity, negative = inhibition: on the % scale 0 is the no-effect control and ±100 the full control effect); conditions: ER-beta-UAS-bla HEK293T, beta-lactamase FRET ratio, 16 h; activity, negative = inhibition: at 92.4 µM (top of the series) unless noted
# In short: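 ER-beta-UAS-bla HEK293T cells in 2% charcoal-stripped FBS medium treated with compound plus 1nM final 17-beta-estradiol for 16 hr at 37C. Beta-lactamase reporter read by FRET substrate fluorescence after 2 hours at room temperature.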
# [11] = biological target: Progesterone receptor (Homo sapiens) (UniProt P06401); experiment: qHTS assay to identify small molecule agonists of the progesterone receptor (PR) signaling pathway (AID 1346784; calls by dose curve; further: nearly all actives have a fitted effect of over 30% in size); conditions: PR-UAS-bla HEK293T, beta-lactamase FRET ratio, 16 h; activation: at 92.4 µM (top of the series) unless noted
# In short: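 Reporter assay, GripTite PR-UAS-bla HEK 293T cells: 16 hr exposure to DMSO-dissolved compounds at 37C, 5% CO2, in steroid-depleted (2% charcoal-stripped FBS) medium; beta-lactamase measured by FRET fluorescence.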
# [12] = qHTS assay to identify small molecule agonists of the androgen receptor (AR) signaling pathway in the presence of an antagonist - cell viability counter screen (AID 1259379); further: nearly all actives have a fitted effect of over 25% in size
# In short: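 Viability counter screen: CellTiter-Fluor fluorescence, measured in the same wells as the luciferase read-out. MDA-kb2 cells, 3,000/well, with nilutamide at 3.0uM final and compounds at 15 concentrations, 16 hr at 37C, 0% CO2.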
# [13] = qHTS assay to identify small molecule antagonists of the estrogen receptor beta (ER-beta) signaling pathway - cell viability counter screen (AID 1259382); further: nearly all actives have a fitted effect of over 55% in size
# In short: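 Luminescent ATP read-out (CellTiter-Glo, 30 min, RT) taken in the same wells as the bla reporter assay. HEK293T ER-beta-UAS-bla cells in 2% charcoal-stripped FBS were exposed to compounds with 1nM E2 for 16 hr at 37C.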
# [14] = biological target: Thyrotropin receptor (Homo sapiens) (UniProt P16473); experiment: qHTS assay to identify small molecule antagonists of the thyroid stimulating hormone receptor (TSHR) signaling pathway (AID 1259385; calls by dose curve; further: nearly all actives have a fitted effect of over 20% in size; on activity change, negative = inhibition: on the % scale 0 is the no-effect control and ±100 the full control effect); conditions: TSHR-HEK293 cAMP HTRF, TSH-stimulated antagonist mode; activity change, negative = inhibition: at 92.4 µM (top of the series) unless noted
# Sequence of UniProt P16473 (P16473 whole entry, looked up): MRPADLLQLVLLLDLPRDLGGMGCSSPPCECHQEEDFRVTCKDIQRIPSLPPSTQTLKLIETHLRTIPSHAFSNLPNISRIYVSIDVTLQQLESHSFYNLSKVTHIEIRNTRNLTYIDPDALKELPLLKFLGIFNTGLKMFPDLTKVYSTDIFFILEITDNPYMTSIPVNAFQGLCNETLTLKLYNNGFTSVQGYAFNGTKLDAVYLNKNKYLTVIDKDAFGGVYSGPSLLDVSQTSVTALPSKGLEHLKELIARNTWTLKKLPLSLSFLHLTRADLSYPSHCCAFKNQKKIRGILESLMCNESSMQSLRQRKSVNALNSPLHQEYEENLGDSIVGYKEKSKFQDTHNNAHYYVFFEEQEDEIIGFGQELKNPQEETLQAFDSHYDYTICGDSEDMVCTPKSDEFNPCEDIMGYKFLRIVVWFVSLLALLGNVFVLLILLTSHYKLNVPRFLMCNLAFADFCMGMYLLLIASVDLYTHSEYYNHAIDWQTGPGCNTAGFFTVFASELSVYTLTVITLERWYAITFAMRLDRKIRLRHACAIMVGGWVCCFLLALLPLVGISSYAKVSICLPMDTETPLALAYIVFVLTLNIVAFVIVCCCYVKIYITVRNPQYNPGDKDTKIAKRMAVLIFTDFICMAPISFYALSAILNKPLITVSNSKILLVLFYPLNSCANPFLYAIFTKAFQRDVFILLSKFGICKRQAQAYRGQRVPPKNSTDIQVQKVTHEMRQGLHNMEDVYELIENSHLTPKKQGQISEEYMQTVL
# In short: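 TSHR-HEK293 cells (800/well) plated 18 h, then compounds with Ro20-1724 and TSH at 1.5 ng/mL final, 30 min at room temperature. cAMP quantified by HTRF (cAMP-d2/anti-cAMP-cryptate, 1 h); 15 concentrations in triplicate.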
# Potency means the concentration at half of the fitted maximal effect; tags describe the fitted curve by direction and shape or compound fluorescence and quenching.
smiles,measurement,setting,value
CC(=O)OC1(c2ccccc2)CCN(CCc2ccccc2)CC1,Potency,[1],"inconclusive: 70.3 µM [cytotoxic, partial curve, poor fit]"
same,Potency,[2],"inconclusive: 17.6 µM [inhibitor, full curve, poor fit]"
same,Potency,[3],"inconclusive: 4.43 µM [cytotoxic, partial curve]"
same,Potency,[4],"inconclusive: 12.5 µM [cytotoxic, full curve]"
same,Potency,[5],inactive
same,Potency,[6],inactive
COc1ccc(Cc2nccc3cc(OC)c(OC)cc23)cc1OC,Potency,[1],inconclusive: 5.31 µM
same,Potency,[7],"inconclusive: 4.22 µM [rising, partial curve]"
same,Potency,[6],"inconclusive: 2.11 µM [rising, full curve]"
c1coc(-c2nc3ccccc3[nH]2)c1,Potency,[8],inactive
same,Potency,[9],"inconclusive: 15.4 µM [activator, full curve]"
same,Potency,[3],"inconclusive: 68.6 µM [cytotoxic, partial curve, poor fit]"
O=C(CCl)Nc1ccccc1,Potency,[8],active: 27.3 µM
same,Potency,[2],inactive
same,Potency,[10],active: 27.3 µM
same,Potency,[5],"inconclusive: 34.4 µM [rising, partial curve]"
COP(=S)(OC)Oc1ccc([N+](=O)[O-])c(C)c1,Potency,[8],"inconclusive: 68.6 µM [cytotoxic, single point]"
same,Potency,[2],"inconclusive: 68.6 µM [inhibitor, single point]"
same,Potency,[10],"inconclusive: 54.5 µM [inhibitor, partial curve, poor fit]"
same,Potency,[3],"inconclusive: 61.1 µM [cytotoxic, single point]"
same,Potency,[11],"inconclusive: 24.3 µM [falling, partial curve]"
same,Potency,[5],active: 6.11 µM
same,Potency,[6],"inconclusive: 8.63 µM [rising, partial curve]"
CC(C)(O)C(=O)Nc1ccc([N+](=O)[O-])c(C(F)(F)F)c1,Potency,[8],inactive
same,Potency,[2],active: 24.8 µM and active: 22.4 µM
same,Potency,[9],"inconclusive: 62.4 µM [rising, partial curve, poor fit]"
same,Potency,[10],"inconclusive: 78.5 µM [rising, partial curve, poor fit]"
same,Potency,[3],"inconclusive: 78.5 µM [cytotoxic, single point]"
Oc1ccc([C@H]2CNCc3c2ccc(O)c3O)cc1O,Potency,[8],inactive
same,Potency,[2],"inconclusive: 33.5 µM [inhibitor, single point]"
same,"activity, negative = inhibition",[10],inconclusive: -35.2% [at 42.5 µM]
same,Potency,[12],"inconclusive: 29.8 µM [cytotoxic, partial curve, poor fit]"
O=[N+]([O-])c1cc(Cl)c(Cl)c(Cl)c1,Potency,[8],inactive
C=CC(=O)OCCCCO,Potency,[8],"inconclusive: 61.1 µM [cytotoxic, partial curve]"
NC(=O)C(Cl)Cl,Potency,[8],inactive
COc1cc(OC)nc(Oc2cccc(Oc3nc(OC)cc(OC)n3)c2C(=O)O)n1,Potency,[8],inactive
same,Potency,[2],"inconclusive: 68.3 µM [inhibitor, single point]"
same,Potency,[6],"inconclusive: 68.3 µM [rising, single point]"
O=S(=O)(O)C(F)(F)C(F)(F)C(F)(F)C(F)(F)C(F)(F)C(F)(F)C(F)(F)C(F)(F)F,Potency,[8],"inconclusive: 29.2 µM [cytotoxic, single point] and inconclusive: 61.1 µM [cytotoxic, single point]"
same,Potency,[2],"inconclusive: 77 µM [inhibitor, partial curve, poor fit] and inconclusive: 864 nM [inhibitor, full curve, poor fit]"
same,Potency,[13],active: 46.2 µM
same,Potency,[14],inconclusive: 61.1 µM
same,Potency,[4],"inconclusive: 43.3 µM [cytotoxic, partial curve, poor fit]"
same,Potency,[11],"inconclusive: 68.6 µM [cytotoxic, partial curve, poor fit]"
same,"activity change, negative = inhibition",[5],inconclusive: -35.4%
same,Potency,[7],active: 29.2 µM and inconclusive: 54.5 µM [cytotoxic] and active: 19.3 µM
same,Potency,[6],active: 41.2 µM and active: 17.2 µM
Nc1ccc(Br)cc1,Potency,[8],"inconclusive: 68.5 µM [cytotoxic, single point]"
same,Potency,[2],active: 43.2 µM
same,Potency,[10],"inconclusive: 10.8 µM [inhibitor, partial curve]"
same,"activity, negative = inhibition",[10],inconclusive: -35.3%
same,Potency,[3],"inconclusive: 24.3 µM [cytotoxic, partial curve, poor fit]"
same,Potency,[14],inactive
same,Potency,[5],active: 61 µM and inconclusive: 34.4 µM
same,Potency,[7],"inconclusive: 0.172 µM [cytotoxic, full curve, poor fit]"
same,Potency,[6],active: 27.3 µM
OC(c1ccc(Cl)cc1)(c1cncnc1)c1ccccc1Cl (configuration not stated),Potency,[8],"inconclusive: 61.1 µM [cytotoxic, partial curve]"
same,Potency,[2],"inconclusive: 24.8 µM [inhibitor, partial curve, poor fit]"
same,Potency,[3],"active: 49.4 µM and inconclusive: 13.7 µM [cytotoxic, partial curve]"
same,Potency,[4],"inconclusive: 69.8 µM [cytotoxic, single point]"
same,Potency,[5],inconclusive: 24.8 µM and active: 13.7 µM
same,Potency,[7],"inconclusive: 78.3 µM [cytotoxic, single point]"
